Results taken from publication PMC4336329 (PLoS ONE, 2015).
Screen size: about 310,000 compounds; about 2,200 (0.71%) showed an effect of 50% or more. Effects have a minus sign here. Some of the results follow.

Each molecule was assayed against human ether-à-go-go-related gene (hERG) potassium channel (human, UniProt Q12809) (assay: primary screen, population patch clamp on CHO cells stably expressing hERG).
human ether-à-go-go-related gene (hERG) potassium channel, sequence (Q12809 whole entry, looked up): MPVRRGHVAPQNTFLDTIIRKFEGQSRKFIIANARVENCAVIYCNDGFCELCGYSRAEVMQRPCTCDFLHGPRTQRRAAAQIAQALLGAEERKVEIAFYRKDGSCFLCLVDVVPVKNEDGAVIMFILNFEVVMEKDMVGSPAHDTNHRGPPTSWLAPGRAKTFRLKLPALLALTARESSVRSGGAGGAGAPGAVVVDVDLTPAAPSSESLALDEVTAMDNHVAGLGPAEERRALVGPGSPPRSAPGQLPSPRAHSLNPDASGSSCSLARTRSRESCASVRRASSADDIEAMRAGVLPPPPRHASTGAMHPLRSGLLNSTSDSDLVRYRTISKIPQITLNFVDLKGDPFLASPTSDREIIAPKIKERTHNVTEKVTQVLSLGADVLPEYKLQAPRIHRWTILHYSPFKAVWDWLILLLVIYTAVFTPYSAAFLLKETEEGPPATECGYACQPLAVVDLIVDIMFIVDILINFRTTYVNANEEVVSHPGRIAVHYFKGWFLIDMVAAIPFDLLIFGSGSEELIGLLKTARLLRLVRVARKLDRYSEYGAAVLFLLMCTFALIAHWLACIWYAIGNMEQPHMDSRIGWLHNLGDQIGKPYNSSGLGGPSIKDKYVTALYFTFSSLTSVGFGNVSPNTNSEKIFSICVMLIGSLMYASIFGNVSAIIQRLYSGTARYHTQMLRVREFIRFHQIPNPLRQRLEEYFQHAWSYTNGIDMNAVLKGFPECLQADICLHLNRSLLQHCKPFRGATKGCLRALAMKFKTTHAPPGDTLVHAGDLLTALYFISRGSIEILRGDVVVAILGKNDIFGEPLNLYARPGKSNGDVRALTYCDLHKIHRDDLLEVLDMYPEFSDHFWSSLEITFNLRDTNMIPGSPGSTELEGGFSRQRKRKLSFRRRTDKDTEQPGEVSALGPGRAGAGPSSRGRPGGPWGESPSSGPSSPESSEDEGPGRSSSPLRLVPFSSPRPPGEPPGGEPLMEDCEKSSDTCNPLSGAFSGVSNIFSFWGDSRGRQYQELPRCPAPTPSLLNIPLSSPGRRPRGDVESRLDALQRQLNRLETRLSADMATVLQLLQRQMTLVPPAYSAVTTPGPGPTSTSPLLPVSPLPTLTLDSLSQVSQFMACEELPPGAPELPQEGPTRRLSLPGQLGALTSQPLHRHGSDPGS

| SMILES | hERG current change (%, negative = inhibition) at 1uM [%] |
| --- | --- |
| Cc1ccc(S(=O)(=O)Nc2ccc3c4c(cccc24)CC3)c(C)c1 | 6.81 |
| CCN1CCN(c2c(Cl)cccc2NC(=O)c2cccs2)CC1 | -45.9 |
| CCOC(=O)c1c(NC(=O)CCC(=O)O)sc2c1CCCCC2 | 18.6 |
| CCOc1ccc(N=c2oc3cc(O)ccc3cc2C(=O)NCC2CCCO2)cc1 (centres unmarked) | 11.5 |
| Cc1ccc(NC(=S)NC(NC(=O)c2ccccc2C)C(Cl)(Cl)Cl)c(C)c1 (centres unmarked) | 21.3 |
| CCOC(=O)C1C(=O)N(C)C2(C)CC1c1cc(OC)ccc1O2 (centres unmarked) | 13.8 |
| COc1ccc(CSc2nnnn2C)cc1[N+](=O)[O-] | -2.66 |
| C/C(=N\NC(=O)c1ccc(Cl)c(Cl)c1)c1cccc(NC(=O)C(C)C)c1 | 9.8 |
| CCCC(c1nnnn1CC1CCCO1)N1CCN(c2ccccc2)CC1.Cl (centres unmarked) | 14.7 |
| Cc1ccccc1CN(CC(=O)Nc1cccc([N+](=O)[O-])c1)S(=O)(=O)c1ccc(Cl)cc1 | 8.27 |
| CCNC(=S)NNC(=O)c1cc(CC(C)C)nc2ccccc12 | 1.63 |
| COc1ccc(Cl)cc1NC(=S)N1CCC(c2ccc(C)cc2)C1 (centres unmarked) | 1.58 |
| CN(CC(=O)NCc1ccccc1Cl)S(=O)(=O)c1cccs1 | 10.1 |
| CCOC(=O)c1cnc2nc(COc3ccccc3)[nH]n2c1=O | -1.77 |
| CCOCCCn1c(SCC(=O)Nc2ccc(C(N)=O)cc2)nc2ccccc2c1=O | 9.22 |
| COc1ccc(NC(=O)Cn2cnc3sc(C)c(S(=O)(=O)N4CCOCC4)c3c2=O)cc1Cl | 5.74 |
| O=C(CCN1C(=O)/C(=C\c2ccccc2Cl)SC1=S)N1CCN(c2ccccc2)CC1 | 10.8 |
| COc1ccc(C(CNC(=O)c2ccco2)N2CCCC2)cc1 (centres unmarked) | 3.46 |
| COC(=O)c1cc(=O)n(Cc2cccs2)c(=NCc2cccs2)s1 | -1.68 |
| CCOc1ccc(CCN2C(=O)CCC2(C)C(=O)NC(C)CC)cc1OCC (centres unmarked) | -2.1 |
| Cc1ccc(S(=O)(=O)NCCc2nnc3ccc(NCCCOC(C)C)nn23)cc1 | 9.3 |
| Cn1cc(C(N)=O)c2ccccc21 | 9.33 |
| COc1ccccc1NC(=O)CN1CCN(c2ccccc2OC)CC1 | 13.7 |

| SMILES | hERG current change (%, negative = inhibition) at 1uM [%] |
| --- | --- |
| COc1ccc(CCNC(=O)CC(=O)NCCc2ccc(OC)cc2)cc1 | 14.2 |
| Cc1c(C(=O)n2cnc3ccccc32)cccc1[N+](=O)[O-] | 8.77 |
| N#Cc1ccsc1NC(=O)COC(=O)C1=NNC(=O)CC1 | 10.5 |
| COc1ccc(N(C(=O)c2ccc(Br)o2)C2C=CS(=O)(=O)C2)c(OC)c1 (centres unmarked) | 7.73 |
| COc1ccc(OC)c(N(C(=O)c2snc(C(N)=O)c2N)C(C(=O)NCc2ccccc2)c2ccc(O)cc2)c1 (centres unmarked) | -14.5 |
| Cc1cc(-c2ccccc2)nc(N2CCC(C(=O)NC(C)C)CC2)n1 | 5.49 |
| CCOC(=O)Cn1cnc2c(nnn2-c2ccccc2)c1=O | -3.55 |
| COc1ccc(C(=O)N[C@H](C(=O)Nc2ccc(OC)nc2)C(C)C)cc1 | 2.05 |
| COc1ccc(CCNC(=O)c2ccc3nc(N4CCCCC4)sc3c2)cc1OC | 7.61 |
| CC(=O)Nc1ccc(C(=O)OCc2ccc(Br)cc2)cc1 | 5.12 |
| CN(Cc1ccc(OCC(O)CN(C)Cc2ccccc2)cc1)Cc1nccn1C (centres unmarked) | 1.21 |
| Fc1ccc(-c2nnc3sc(C4COc5ccccc5O4)nn23)cc1 (centres unmarked) | -9.28 |
| Cc1[nH]n(C(N)=S)c(=O)c1N=Nc1ccccc1C(F)(F)F | 13.2 |
| O=c1cc(Nc2ccc3c(c2)OCO3)[nH]c(=O)n1-c1ccc(Br)cc1 | 12.4 |
| Cc1cc(N(C)Cc2ccccc2)nc(-c2ccccc2)n1 | 1.51 |
| Cc1ccc(O)c(-c2cc(-c3cccc(F)c3)n[nH]2)c1 | 19.5 |
| Cc1nnn(-c2nonc2N)c1C(=O)NNC(=O)c1ccc(Cl)c(Cl)c1 | 11.4 |
| CCOC(=O)c1ccc(NC(=O)N2CCN(S(C)(=O)=O)CC2)cc1 | 14.4 |
| Cc1c(NC(NC(=O)CF)C(Cl)(Cl)Cl)c(=O)n(-c2ccccc2)n1C (centres unmarked) | 11.8 |
| COc1ccc(CNC(=O)CCOc2ccc(C(C)(C)C)cc2)cc1 | 9.68 |
| O=C(COC(=O)c1ccco1)NCc1cccs1 | 21.5 |
| Cc1cc(C)nc(SCC(=O)Nc2ncc(C(F)(F)F)cc2Cl)n1 | 4.1 |
| CN(C(=O)c1ccc(OC2CCN(CCc3ccccc3)CC2)cc1)C1CCCCC1 | -27.7 |

| SMILES | hERG current change (%, negative = inhibition) at 1uM [%] |
| --- | --- |
| CCN(CC)S(=O)(=O)c1ccc(C(=O)N2CCN(c3ncccn3)CC2)cc1 | 9.24 |
| CC1CCCC(C)N1C(=O)c1cc(-c2ccc3c(c2)OCO3)on1 (centres unmarked) | 9.61 |
| CC(=O)Nc1ccc(S(=O)(=O)Nc2cccc(N(C)S(C)(=O)=O)c2)cc1 | 14.7 |
| Cc1cc(C)n2cc(CSc3nc4cc(Cl)ccc4o3)nc2n1 | -36.5 |
| CC(=O)c1ccc(-c2ccc(C(=O)N3CCN(c4ccc(F)cc4)CC3)o2)cc1 | 4.06 |
| CCCCN1C(=O)C(=O)NC[C@@H]1CCCCN | 11.8 |
| CN(C)C(=O)COc1ncnc2sc(-c3ccccc3)cc12 | 10.6 |
| COC(=O)C1=C(c2c(C)noc2C)C[C@@H]2CC[C@H]1N2C(=O)NCc1ccc(F)cc1 | 10.6 |
| O=[N+]([O-])c1cc(S(=O)(=O)Nc2ccc(Cl)cc2)ccc1N/N=C/c1ccncc1 | 5.08 |
| C#CCOc1c(Cl)cc(/C=N/NC(N)=S)cc1OCC | 1.35 |
| O=C(CSc1ccc2nnc(-c3ccncc3)n2n1)Nc1ccc2c(c1)OCO2 | 13.8 |
| CCOCCCNC(=O)C1CCC(CNS(=O)(=O)c2ccc(F)cc2)CC1 (centres unmarked) | 2.55 |
| Nc1nonc1C(=O)OCC(=O)N1CCOCC1 | 7.64 |
| Cc1cccc(C(=O)OCc2cc3ccccc3[nH]c2=O)c1 | 16.7 |
| Cc1cc(C)c(/C=C(\C#N)S(=O)(=O)c2ccccc2)[nH]1 | 14.3 |
| CC(C)(C)C(=O)Nc1ccc(S(=O)(=O)NC2=NCCCCC2)cc1 | 13.8 |
| CCCCCC1CCC(C(=O)N2CCOCC2)CC1 (centres unmarked) | 14.7 |
| Cc1ccc2nc(-c3cccc(N)c3)[nH]c2c1 | 13 |
| Cc1ccnc(NS(=O)(=O)c2ccc(N=CC3=C(O)CC(C)(C)CC3=O)cc2)n1 | -4.04 |
| C1CC2NCCC3NCCC(N1)N32 (centres unmarked) | 5.12 |
| CC(C)NC(=O)NC(=O)COC(=O)Cc1ccsc1 | 5.11 |
| COc1ccc(NC(=O)CSCC(=O)N(C)CCOc2ccc(Cl)cc2)cc1 | -9.12 |
| CCS(=O)(=O)c1ccc2c(c1)N(S(=O)(=O)c1ccc(Cl)cc1)CC(C(=O)O)O2 (centres unmarked) | 1.76 |

| SMILES | hERG current change (%, negative = inhibition) at 1uM [%] |
| --- | --- |
| COc1ccc(NC(=O)CSc2nnc(C3CCCCC3)n2N)c(OC)c1 | 13.2 |
| O=C(Nc1cccc(S(=O)(=O)N2CCCCC2)c1)C1CCN(C(=O)c2ccc(Cl)cc2)CC1 | 10.5 |
| CCNc1nc(NCC)n2c(SCC(=O)c3ccc(C(C)C)cc3)nnc2n1 | 12.2 |
| CCC(=O)Nc1nonc1-c1nc2ccccc2n1CCC(C)C | 5.5 |
| O=C(CCc1nnc2ccc(NCc3ccco3)nn12)N1CCN(c2ccc(F)cc2)CC1 | 7.48 |
| O=c1c2ccccc2nc(-c2ccccc2)n1-c1nccs1 | 11.6 |
| Br.CCCCCCCCCCn1c2c(c(=N)c3c1CCC3)CCC2 | -71.7 |
| c1ccc(CN2CCN(c3nc4ccccc4c4ccccc34)CC2)cc1 | 0.223 |
| Cc1ccc(NCC(=O)Nc2c(C)n(C)n(-c3ccccc3)c2=O)cc1S(=O)(=O)N(C)C | 7.49 |
| Cc1cccc(N(C)S(=O)(=O)c2ccc3c(c2)NC(=O)CC(=O)N3)c1 | 19.5 |
| Cc1c(NC(=O)COC(=O)C(c2ccc(Cl)cc2)C(C)C)c(=O)n(-c2ccccc2)n1C (centres unmarked) | 14.1 |
| CCOc1cc(C)nc(NCCc2ccc(OC)c(OC)c2)n1 | 8.65 |
| CN(C)C(CNC(=O)c1cccc(S(=O)(=O)Nc2ccccc2Cl)c1)c1ccco1 (centres unmarked) | -2.84 |
| O=S(=O)(NCC(c1ccco1)N1CCc2ccccc21)c1ccccc1 (centres unmarked) | 2.67 |
| COc1cccc(NC(=O)NC2CCN(Cc3nnnn3Cc3ccc(F)cc3)CC2)c1 | -20 |
| Cc1ccc(C(=O)NC(=S)N2CCN(C)CC2)cc1 | 2.6 |
| O=C(N/N=C/c1ccc(OC(=O)c2cccs2)cc1)c1cccc(F)c1 | 9.18 |
| COC(=O)c1[nH]c2ccc(C)cc2c1NC(=O)CN1CCN(c2ccc(F)cc2)CC1 | 7 |
| N/C(=N\c1nc2ccccc2o1)NC(=O)c1ccc(Cl)cc1 | 18 |
| CCn1c(SCc2ccccc2)nnc1C1CCN(S(=O)(=O)c2ccc(OC)cc2)CC1 | 0.325 |
